From the supplement of paper PMC4604168 (melanoma cell lines)
This is one part of the list. Repeats are few or missing, and single values can be far off.

System: SkMel28
Assay: cell count relative to DMSO control; melanoma cells; higher = more viable cells
Settings: library dose: standard library concentration; 72 h
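Further: cells treated in 1,536-well plates, then fixed and DAPI-stained, with nuclei counted from automated high-throughput microscope images.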

Row | SMILES | cell count [%]
1 | CN(c1ncccc1CNc1nc(Nc2ccc3c(c2)CC(=O)N3)ncc1C(F)(F)F)S(C)(=O)=O + Cc1ccc(NC(=O)c2cccc(N(C)C)c2)cc1NC(=O)c1ccc(O)cc1 [ZM336372] (first compound 0.4 µM, partner dose 10 µM) | 73
2 | C=C(c1ccc(C(=O)O)cc1)c1cc2c(cc1C)C(C)(C)CCC2(C)C [Bexarotene] + Nc1ccn([C@@H]2O[C@H](CO)[C@@H](O)C2(F)F)c(=O)n1 [gemcitabine] (first compound 10 µM, partner dose 0.002 µM) | 60.1
3 | CS(=O)(=O)c1ccc(C(=O)Nc2ccc(Cl)c(-c3ccccn3)c2)c(Cl)c1 [vismodegib] + CS(=O)(=O)CCNCc1ccc(-c2ccc3ncnc(Nc4ccc(OCc5cccc(F)c5)c(Cl)c4)c3c2)o1 [lapatinib] (first compound 5 µM, partner dose 4 µM) | 65.8
4 | NC1(c2ccc(-c3nc4ccn5c(=O)[nH]nc5c4cc3-c3ccccc3)cc2)CCC1 + Cc1cc(N2CCOCC2)cc2[nH]c(-c3c(NC[C@@H](O)c4cccc(Cl)c4)cc[nH]c3=O)nc12 [BMS536924] (first compound 2 µM, partner dose 1 µM) | 57
5 | C=C(c1ccc(C(=O)O)cc1)c1cc2c(cc1C)C(C)(C)CCC2(C)C [Bexarotene] + Nc1ncn([C@H]2C[C@H](O)[C@@H](CO)O2)c(=O)n1 [decitabine] (first compound 10 µM, partner dose 0.5 µM) | 89.3
6 | NC1(c2ccc(-c3nc4ccn5c(=O)[nH]nc5c4cc3-c3ccccc3)cc2)CCC1 + Cn1c(Nc2ccc(C(F)(F)F)cc2)nc2cc(Oc3ccnc(-c4ncc(C(F)(F)F)[nH]4)c3)ccc21 [CHIR265] (first compound 2 µM, partner dose 0.4 µM) | 24.2
7 | CN(c1ncccc1CNc1nc(Nc2ccc3c(c2)CC(=O)N3)ncc1C(F)(F)F)S(C)(=O)=O + C=CCn1c(=O)c2cnc(Nc3ccc(N4CCN(C)CC4)cc3)nc2n1-c1cccc(C(C)(C)O)n1 [MK1775] (first compound 0.4 µM, partner dose 0.1 µM) | 60.4
8 | CCCS(=O)(=O)Nc1ccc(F)c(C(=O)c2c[nH]c3ncc(Cl)cc23)c1F + COc1cc(Nc2ncc(F)c(Nc3ccc4c(n3)NC(=O)C(C)(C)O4)n2)cc(OC)c1OC [Tamatinib] (first compound 0.4 µM, partner dose 2 µM) | 50.8
9 | NC1(c2ccc(-c3nc4ccn5c(=O)[nH]nc5c4cc3-c3ccccc3)cc2)CCC1 + CN(C)S(=O)(=O)c1ccc2c(c1)/C(=C/c1cc3c([nH]1)CCCC3)C(=O)N2 [SU6656] (first compound 2 µM, partner dose 2 µM) | 36.3
10 | CS(=O)(=O)c1ccc(C(=O)Nc2ccc(Cl)c(-c3ccccn3)c2)c(Cl)c1 [vismodegib] + NC(=O)Nc1cc(-c2cccc(F)c2)sc1C(=O)N[C@H]1CCCNC1 [AZD7762] (first compound 5 µM, partner dose 0.1 µM) | 54.2
11 | CCCS(=O)(=O)Nc1ccc(F)c(C(=O)c2c[nH]c3ncc(Cl)cc23)c1F + OCCn1cc(-c2cnc3nnn(Cc4ccc5ncccc5c4)c3n2)cn1 [PF04217903] (first compound 0.4 µM, partner dose 5 µM) | 52.1
12 | CS(=O)(=O)c1ccc(C(=O)Nc2ccc(Cl)c(-c3ccccn3)c2)c(Cl)c1 [vismodegib] + CC(=O)c1c(C)c2cnc(Nc3ccc(N4CCNCC4)cn3)nc2n(C2CCCC2)c1=O [palbociclib] (first compound 5 µM, partner dose 0.2 µM) | 58.6
13 | CN(c1ncccc1CNc1nc(Nc2ccc3c(c2)CC(=O)N3)ncc1C(F)(F)F)S(C)(=O)=O + CS(=O)(=O)CCNCc1ccc(-c2ccc3ncnc(Nc4ccc(OCc5cccc(F)c5)c(Cl)c4)c3c2)o1 [lapatinib] (first compound 0.4 µM, partner dose 4 µM) | 65.7
14 | CN(c1ncccc1CNc1nc(Nc2ccc3c(c2)CC(=O)N3)ncc1C(F)(F)F)S(C)(=O)=O + Cn1c(Nc2ccc(C(F)(F)F)cc2)nc2cc(Oc3ccnc(-c4ncc(C(F)(F)F)[nH]4)c3)ccc21 [CHIR265] (first compound 0.4 µM, partner dose 0.4 µM) | 43.7
